# Over roughly 2,300 sequences, “median log2 fold change of GCK-ALFA target abundance (FLAG IP / Myc IP barcode read proportion)” has its median near 0.095; the lowest 2% begin near -0.47. The list shows a part of the results.
# B1: LC3A_132_280 (protein)
# chain: EEEKTKKAIEKVKELAEKAKENINDEEKVEKLVKELEEYLKKVEKEYSPETVAKVHETAADEYEELSEKAEEAGKEDLALYLDSLSIEAESRALEAEKKI
# B2: LC3A_45_1935 (protein)
# chain: MYKATVDILVPKELAEKALELIKEKGKELEKKYGDKIKVDFELLEKSYEETKDEEEVYLRVEIYADDEQTALDAADELEDYLRKELNNQVSAIISIEKLP
# B3: LC3A_28_1045 (protein)
# chain: SALEASAKAAIAEAEAQFAKGEEAVVTLTVPNVPTEEAKAVVTATLAELSALSKAHGGRKVTVVIDVDGDQETLDALIDAAEAAEAADPNLTVIIAYDDP
# B4: LC3A_3_1510 (protein)
# chain: MEEFIAELRELLKKMGASEEVIELAEENLRLLLERGYEEAAKTLYELLKEMKNASNETLLAFMKEVLELLLSTDLSEEEIIEKIKEIARTAKNDEEIIEL
# B5: LC3A_23_632 (protein)
# chain: MYRLDLTIDLLGREEDVRRAVEELVRHAEEAAKEHGAEILELRVRFEVEERPDGREAFAEIHIVVEAETEEKILKVRDSLLDHLDTLGVSAVASYEIEKL
# B6: LC3A_3_1653 (protein)
# chain: GEKLIEELLAWLKEQGKSEEVLEAVRKALTALIEKGYLETAKTFAELLKELAHLPDEILLWLAEEVLRLVETSDADEETMKAEVEELATTARNEGEIEEL
# B7: LC3A_102_158 (protein)
# chain: KAEEVLEERLEEIRRLAEELEKTLSPEEAERLRELVERAEELLRKYLEELKIGAQHDMETVEGIRAELELEEIIRELEELGAEEIAEKIRELVEELKELA
# B8: LC3A_28_935 (protein)
# chain: MTVEERIEKALAEAKAAAAAGEPVVITIKVTKEDTQEEVEKIIETIKEIADILKDVKGAAIIVDVDAGVPQERVDKIADTLEEIEEKYPNINAILALDED
# B9: LC3A_147_491 (protein)
# chain: ARVDVDVLVEGEEAAEEIIEEVKEIVEEFKKKGVKVELEVEKEEIEPGIWYVRITITVEAETPEEAMAAAREIESKIDEILEKHKDRVLAALISIEEIER
# B10: LC3A_28_668 (protein)
# chain: GSLKKKLEELLKKAKEAAKKGEATVIVLEVPGDATQEDVDYFIEKLEEIAELLKDVKGSAIIVDLSGDLSQEHRDKIIDKAEEINEKYPNVTVIIALEDR
# B11: LC3A_3_1722 (protein)
# chain: FEEIKERALKVLEEKGASEETIEAARELLDALEEKGFEEAAKTLLEELEELEGVPSERLLAALLDLLHLVTEEDLSEEEIIEEIKREFRVLKEDLEIEEL
# B12: LC3A_28_1142 (protein)
# chain: SELVEEAKKKIDEDAERDKDEPEALLRVTITSEMTVEEAEEIMDHVREVVEKLKDKEKIFIVVDATEPISQEVLDTIVEKLDEIEKEFPNVSSIIALPED
# B13: LC3A_28_1062 (protein)
# chain: MEVEEEIEEALAEAEEAVAAGEEALITLTIDDEDSEEDIERKLETMEEIAELAKSLPSVTILVDVDSSREEEVTKKVSEVGDRLEKKYPNVTVIIALSEE
# B14: LC3A_28_1200 (protein)
# chain: SAADKTIENIKKQTEKALEKGDGEVIIVNITSTMTSEDIDKIIKTIKEEAEKLKDVSSVSIVINVDAGVPQEDITKLAETGEEIEKKYPNITVIIALDED
# B15: LC3A_102_138 (protein)
# chain: SIEEKIEELKERALEEMREALEEREDLTEEEKEELLELARKAIEATVESAKTLAQHGFVDIVAEDEALEALDRLEARDPELAKRLRELLERIEKEIEELY
# B16: LC3A_free_39_2219 (protein)
# chain: MEEEIEKLIKEIAEESGLDYEEVKEKLEEIKEIAGLSKEQIKEIAEALLEAVRAGADAKEILEEILKIAKELKAEGKSPEEIAKEILETIEDARNLVPLE
# B17: LC3A_28_658 (protein)
# chain: MPIEERLEEAIKKAKEAKEKGEPVVVTIKVPATANEEDIERIIETLEEIAEILKDIKGSAIIIDIEAGVPQEYRDRLIDKAEELEEKYPNVTVIIALEEE
# B18: LC3A_28_1289 (protein)
# chain: SAIEKEIAKALAEAKKAVEKGEPVVITITIPSGATEEEIAKVIKGLEEIAKLLSSVKDQAIVINVESGVKEEHINKLADKAEEIEEKYPNVTVIIALDED
# B19: LC3A_28_753 (protein)
# chain: MDIAAEVAAAIAEAKAAAAAGEEAVITITVPAGATEADVDIVIAGMREIAEIAKDMPSMTIVVDIEAGVPQEHIDRLMDEGEEIEEKYPNVTVIFALDED
# Biological target: MAP1LC3A, Q9H492
# Assay: median log2 fold change of GCK-ALFA target abundance (FLAG IP / Myc IP barcode read proportion) (log2 ratio); each designed protein is fused to an ALFA-tag nanobody in HEK293 cells to bring the named protein to FLAG-tagged glucokinase (GCK); Myc marks an untargeted standard; higher = target protein stabilised (more abundant)
# Settings: target protein: 3xFLAG-MCP-GCK-ALFA reporter; HEK293 landing pad (RPLP)
# Outline: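 HEK293 landing-pad cells received a recombined binder library fused to the ALFA nanobody and were induced with 2 μg mL^−1 doxycycline, then transfected with a plasmid encoding a FLAG-tagged target and a Myc-tagged standard. Lysates were collected after 48 h for anti-FLAG and anti-Myc immunoprecipitation, and the circular RNA barcodes were reverse transcribed, amplified and sequenced. Target abundance for each binder is the median log2 ratio of FLAG to Myc barcode read proportions. Barcodes had to reach a proportion of at least 10^−7 in both replicates, each binder needed at least 3 barcodes per replicate, a pseudocount of 10^−6 was applied, and the two replicates were pooled.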
row,Binder,median log2 fold change
1,B1,0.145
2,B2,0.0902
3,B3,-0.0481
4,B4,0.254
5,B5,-0.285
6,B6,0.293
7,B7,0.152
8,B8,0.121
9,B9,-0.0755
10,B10,0.14
11,B11,0.0858
12,B12,-0.129
13,B13,-0.166
14,B14,0.341
15,B15,-0.281
16,B16,0.481
17,B17,-0.0501
18,B18,0.145
19,B19,-0.237
